± gives the standard deviation. Whole data set: some 3,700 sequences, median “pre-steady-state target cleavage rate” near 0.02, cut for the highest 2% near 0.23. The entries are a selection whose mix differs from that of the whole data set.
tested on: MILI (PIWIL2) piRISC loaded with Kctd7 piRNA (26 nt); experiment: pre-steady-state target cleavage rate (min^-1); MIWI and MILI are mouse PIWI proteins and EfPiwi is from a freshwater sponge; tags in brackets are library labels; higher = faster piRNA-guided slicing of the target; conditions: guide: Kctd7 piRNA 5'p-UGUUAAUCUCUCAGAGAAGGUGACAG; auxiliary factor: 500 nM mouse GTSF1
Procedure: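 Cleave-'n-Seq: a library of target RNAs (target site embedded in constant flanks, ACAGCATTCCGCGTTAGTGATATCCG... 5' flank; DNA-blocked outside the site) at 0.1 nM was incubated with 1 nM active mouse MILI or MIWI piRISC (synthetic 5'-monophosphorylated piRNA guide) with or without 500 nM mouse GTSF1 at 33 °C for 1 min to 16 h. Uncleaved targets were sequenced and normalised to non-target controls, and the pooled three trials were fitted to a burst-and-steady-state model to give the pre-steady-state cleavage rate (min^-1; k3 is constrained to at most 1e-4). Sequence is the target site only; target names encode pairing extent (gX:gY) and contiguous / 1-mismatch / 2-mismatch / bulge geometry. Fits with R² ≤ 0 are excluded.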

Sequence	pre-steady-state target cleavage rate
UAGUGAGUCACCUUCUCUAAGAGAUUAACA	0.148 ± 0.015
UAGUGACAGUGGUUCUCUGACGAGAUUAACA	< 0.0001
UAGUGACAGUGCUUCACUGACAGAUUAACA	0.00488 ± 0.0029
UAGUGACAGUCCUUGUCUGUGAGAUUAACA	0.0171 ± 0.0041
UAGUCUGUCACCUUCUGUGAGAGUUUAACA	0.0702 ± 0.016
UAGUGUGUCACCUUCAGUGAGAGAUUAAGA	0.00654 ± 0.0043
UAGUGAGUCACCUUCUCUGACAGUUUAACA	0.0134 ± 0.0052
UAGUGAGUCACGUUCUCUGAGUGAUUAACA	0.0057 ± 0.0032
UAGUGAGUCACCUUCUCUGACAGAUUAACA	0.0582 ± 0.0063
UAGUGACACACCUUCUGUGAGAGUUUAACA	0.0882 ± 0.023
UAGUGACAGACCUUCUGUCAGAGAUUAACA	0.0234 ± 0.0075
UAGUGACAGUGGUUCUCUGAGAGAUUGACA	0.00676 ± 0.0021
UAGUGACUCACCUUCACUGAGAGAUUAUCA	0.0961 ± 0.022
UAGUGACUCACCAUCUCUGUGAGAUUAACA	0.0423 ± 0.0051
UAGUGACAGACGUUCUCUGAGAGAUUAUGA	0.0059 ± 0.0036
UAGUGACAGUGGAAGUCUGAGAGUAAUUGA [g8:g15:cont:t1A]	< 0.0001
UAGUGACAGUGCUUGUCUCAGAGAUUAACA	0.00789 ± 0.0033
UAGUGUGUCACCUUCUCUGAGAGAUUACACA	0.06 ± 0.022
UAGUGACACAGGAUCUCUGAGAGAUAUUGA	< 0.0001
UAGUGACAGUGGUUCUCUCAGAGUUUAACA	< 0.0001
UAGUGACAGUGGUUCCCUGAGAGAUUAACA	0.00909 ± 0.0031
UAGUGAGUCACCUUCAUCUGAGAGAUUAACA	0.195 ± 0.053
UAGUGACUCACCUUCUCUGAGAGAAAUACA	0.017 ± 0.0087
UAGUGAGUCACCUUCUCUGAGCGAUUAACA	0.0537 ± 0.024

Sequence	pre-steady-state target cleavage rate
UAGUGACUCACCUUCUCUGAGAGAUUAACC [g2:g23:cont:t1C]	0.162 ± 0.019
UAGUGUGUACCUUCUCUGAGAGAUUAACA	0.129 ± 0.014
UAGUGACUCACCCUCUCUGAGAGAUUAACA	0.22 ± 0.023
UAGUCAGUCACCUUCUCUGUGAGAUUAACA	0.0672 ± 0.0075
UAGUGUGUCACCAUCUCUGAGUGAUUAACA	0.00697 ± 0.0037
UAGUGAGUCACUUCUCUGAGAGAUUAACA	0.115 ± 0.011
UAGUGUGUCACGUUCUCUGAGAGAUAAACA	0.0819 ± 0.017
UAGUCUGUCACCUUCUCUGAGAGAUUGACA	0.246 ± 0.044
UAGUGACUCACCAAGUCUGAGAGAUUAACA	0.0618 ± 0.0075
UAGUGACUCACCUUCUCUGAGACUAUAAGA	< 0.0001
UAGUGACAGACCUUCUCAGACAGAUUAACA	0.00549 ± 0.0033
UAGUGACAGAGCUUCUCUGAGAGAUUAUCA	0.0166 ± 0.0051
UAGUCAGUCACCUUCUCUGAGAGAUUAUCA	0.222 ± 0.031
UAGUGACAGUGGUCCUCUGAGAGAUUAACA	0.00836 ± 0.0012
UAGUGACAGUCCUACUCUGAGAGAUAAACA	0.00281 ± 0.0025
UAGUGAGUCAGCUUCUCUCAGAGAUUAACA	0.045 ± 0.0056
UAGUGACUCACCUUCUCUGACAGAUAAACA	0.00501 ± 0.0033
UAGUGUGUCACCUUCUCUCAGAGAUAAACA	0.046 ± 0.016
UAGUGAGCACCUUCUCUGAGAGAUUAACA	0.232 ± 0.027
UAGUGACACACCUACUGUGAGAGAUUAACA	0.0809 ± 0.01
UAGUCUGUCACCUUCUCUGAAGAUUAACA	0.00436 ± 0.0033
UAGUGACAGUGCUUCUCUGAGAGAUGUAACA	0.0343 ± 0.0079
UAGUCUGUCUCCUUCUCUGUGAGAUUAACA	0.0385 ± 0.0038
UAGUGAGUGACCUUCUCUGUGAGAUUAACA	0.0432 ± 0.0052

Sequence	pre-steady-state target cleavage rate
UAGUCACUCACCUUCUCUGAGAGAUUAACA	0.207 ± 0.0095
UAGUGACAGUGGUGUCUCUGAGAGAUUAACA	0.00449 ± 0.0027
UAGUCUGUCAUCUUCUCUGAGAGAUUAACA	0.221 ± 0.0092
UAGUGACACACCUUCUCUGAGAGAUUAAUCA	0.0968 ± 0.021
UAGUGAGUCACCUUCUCUAGAGAGAUUAACA	0.00582 ± 0.0045
UAGUGUGACACCUUCUCUGAGAGAAUAACA	0.101 ± 0.031
UAGUGUGUCACCUUCUCUGAGAGAUAUUCA	0.143 ± 0.047
UAGUGUGUCACCUGCUCUGAGAGAUUAACA	0.157 ± 0.012
UAGUGACAGUGCUGCUCUGAGAGAUUAACA	0.0229 ± 0.0032
UAGUGUGUCACCUUGAGUGAGAGAUUAACA	0.0722 ± 0.01
UAGUGAGUCACCUUGUCUGAGAGUUUAACA	0.0431 ± 0.013
UAGUGACUCACCUUCUCUGAGAGAUUGACA	0.154 ± 0.03
UAGUGACAGACCUACUCUGAGAGAUAAACA	0.0111 ± 0.0048
UAGUGAGACACCUUCUCUGAGAGAUUUACA	0.114 ± 0.024
UAGUGACACACCUUCUCUGAGAGAGUAACA	0.148 ± 0.038
UAGUGACUCACCUUGUCUGAGAGAUAAACA	0.0774 ± 0.023
UAGUGACACACCUUCUUUGAGAGAUUAACA	0.199 ± 0.016
UAGUGUGUCACCAUCUCUGAGAGAUAAACA	0.0929 ± 0.022
UAGUGAGUCACCUACUCUGAGAGUUUAACA	0.0905 ± 0.017
UAGUGUGACACGUUCUCUGAGAGAUUAACA	0.175 ± 0.014
UAGUGACUCACCUUCUCUGGGAGAUUAACA	0.139 ± 0.0091
UAGUGUGUCACCUUCUCACUGAGAUUAACA	0.015 ± 0.0033
UAGUGACUCACCUGUCUCUGAGAGAUUAACA	0.092 ± 0.0099
UAGUGACACACCUUCUGAGAGAGAUUAACA	0.0625 ± 0.012

From the supplement of paper PMC10338343
